Among all 310,000 compounds or so, about 14,000 (4.5%) showed an effect of 50% or more. The effect is printed as a negative number. The list shows a part of the results.
What follows are molecules tested against human ether-à-go-go-related gene (hERG) potassium channel (human, UniProt Q12809) (assay: primary screen, population patch clamp on CHO cells stably expressing hERG).
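Note: peak tail current of the secondary pulse compared with the same well before compound.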

Chain of human ether-à-go-go-related gene (hERG) potassium channel (Q12809 whole entry, looked up): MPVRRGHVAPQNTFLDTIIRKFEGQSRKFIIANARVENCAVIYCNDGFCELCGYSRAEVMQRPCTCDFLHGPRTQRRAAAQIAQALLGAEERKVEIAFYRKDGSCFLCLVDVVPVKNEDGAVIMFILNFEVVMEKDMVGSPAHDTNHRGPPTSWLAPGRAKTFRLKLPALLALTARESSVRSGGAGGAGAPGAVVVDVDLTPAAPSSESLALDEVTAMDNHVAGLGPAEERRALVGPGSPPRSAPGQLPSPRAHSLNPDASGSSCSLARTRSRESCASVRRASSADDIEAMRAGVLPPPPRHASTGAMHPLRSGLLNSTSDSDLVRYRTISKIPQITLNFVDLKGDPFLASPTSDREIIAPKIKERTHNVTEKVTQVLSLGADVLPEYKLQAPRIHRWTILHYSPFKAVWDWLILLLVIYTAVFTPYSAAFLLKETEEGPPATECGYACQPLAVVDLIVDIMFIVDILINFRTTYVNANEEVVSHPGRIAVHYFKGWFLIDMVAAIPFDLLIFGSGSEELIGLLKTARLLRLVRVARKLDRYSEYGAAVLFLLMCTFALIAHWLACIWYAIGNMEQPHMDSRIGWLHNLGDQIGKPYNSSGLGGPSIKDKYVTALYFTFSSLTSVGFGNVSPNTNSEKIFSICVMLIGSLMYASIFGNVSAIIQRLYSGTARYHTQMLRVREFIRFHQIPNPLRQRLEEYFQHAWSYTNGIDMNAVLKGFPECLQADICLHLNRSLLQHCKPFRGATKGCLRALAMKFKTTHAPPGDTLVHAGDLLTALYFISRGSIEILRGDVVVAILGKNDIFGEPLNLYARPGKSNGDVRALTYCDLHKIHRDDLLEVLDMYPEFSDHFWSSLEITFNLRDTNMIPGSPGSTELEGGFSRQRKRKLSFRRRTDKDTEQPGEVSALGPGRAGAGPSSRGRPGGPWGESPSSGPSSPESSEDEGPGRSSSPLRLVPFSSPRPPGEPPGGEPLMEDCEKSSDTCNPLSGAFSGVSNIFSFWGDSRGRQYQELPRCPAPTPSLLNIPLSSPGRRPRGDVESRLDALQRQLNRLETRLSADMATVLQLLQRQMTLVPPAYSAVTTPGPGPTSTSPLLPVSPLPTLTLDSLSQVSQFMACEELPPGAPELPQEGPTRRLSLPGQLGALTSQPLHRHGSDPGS

SMILES	hERG current change (%, negative = inhibition) at 10uM
COc1cccc(NC(=O)C(c2ccccc2)N2CCN(CC(=O)N3CCOCC3)CC2)c1 (centres unmarked)	-36.8%
CC1Cc2ccccc2N1C(=O)C1CCN(S(=O)(=O)Cc2ccccc2)CC1 (centres unmarked)	6.61%
C[C@H](O)CC1=C[C@H](O)[C@@H](C)OC1=O	-6.25%
N#Cc1c(N2CCOCC2)nsc1-c1ccccc1	6.68%
CC(C)(C)c1ccc(/C=N/Nc2nncn2N)cc1	-21.5%
Cc1c(Cc2ccccc2)c(=O)oc2c(C)c(OC(C)C(=O)N[C@@H](Cc3ccccc3)C(=O)O)ccc12 (some centres unmarked)	4.54%
CC(C(=O)NC1=NCCS1)N1C(=O)c2ccccc2C1=O (centres unmarked)	4.04%
NC(=O)C1(N2CCCCC2)CCN(S(=O)(=O)c2ccccc2)CC1	-22.2%
O=S(=O)(NC1c2cccc3cccc(c23)C1Sc1ncccn1)c1ccccc1 (centres unmarked)	29.1%
O=C(c1ccc(S(=O)(=O)N2CCCC2)cc1)N1CCCCCC1	-1.88%
N#Cc1ccccc1Cn1cc(C(=O)c2cccs2)c2ccccc21	11.9%
CCSc1nnc(-c2cccnc2)n1Cc1ccco1	-7.73%
CCc1cc2c(C)ccc(C)c2nc1SCC(=O)Nc1cc(C)on1	6.86%
COc1ccc(NC(=O)C2CCN(C(=O)Nc3ccccc3)CC2)cc1S(=O)(=O)N(C)C	12.5%
O=C(COC(=O)Cc1n[nH]c(=O)c2ccccc12)NNC(=O)c1ccccc1	5.8%
CC(=O)/C(=N/Nc1ccc(C)cc1)Sc1nnc(CCc2ccccc2)n1-c1ccccc1	-10.7%
COc1cccc(-c2cc(CC3(O)CCN(CCCc4ccccc4)CC3)on2)c1	-89.1%
O=C(CN1C(=O)c2ccccc2S1(=O)=O)Nc1ccc(S(=O)(=O)N2CCCCC2)cc1	0.41%
CN(C)C(=S)Nc1ccc(Br)cc1Cl	9.09%
C#CCOCCOCCOCCNc1nc(N2CCN(C(=O)[C@H]([C@@H](C)CC)n3cc([C@@H](N)CC(C)C)nn3)CC2)nc(N2CCN(C(=O)[C@H](CCCCN)n3cc([C@@H](N)CO)nn3)CC2)n1.Cl	10.1%
O=S(=O)(Nc1nnc(C2CCCCC2)s1)c1ccc(F)cc1	-42%

SMILES	hERG current change (%, negative = inhibition) at 10uM
O=C(NCCNC(=O)c1ccccn1)c1ccccc1	11.7%
COc1cc(NC(=O)Cc2c(C(=O)O)[nH]c3ccccc23)cc(OC)c1OC	-4.08%
COc1ccc(-c2nnc(N3CCCCC3)c3ccccc23)cc1	-47.3%
O=C(Nc1ccc(Cl)cc1C(=O)c1ccccc1)c1ccccc1	3.76%
Cc1ccc(-c2c[n+](CC(=O)Nc3ccccc3C)c3n2CCC3)cc1.[Cl-]	-5.42%
Cc1cc(/C=C2/SC(=O)N(CC(=O)N3CCCC3)C2=O)c(C)n1C	-5.16%
O=C1C2CCCCN2C(=O)N1CCCCN1CCN(c2ccc(F)cc2)CC1 (centres unmarked)	-44%
O=C(CC(=O)c1ccccc1)Nc1cccnc1	15.7%
CCc1nnc(NC(=O)CN2CCN(c3ccccc3F)CC2)s1.Cl	-12.9%
CN(C)c1ccc(/C=N/N=C(N)N)cc1[N+](=O)[O-]	-13%
COc1ccc(/C=C/C(=O)Nc2c(C(=O)O)[nH]c3ccccc23)cc1OC	11.9%
COc1ccc(N(CC(=O)NCc2cccs2)S(=O)(=O)c2cccnc2)cc1	-8.69%
O=C(/C=C/c1c(Cl)nc2ccccn12)N1CCN(c2ccccc2F)CC1	-5.92%
CC(=O)Oc1ccc(-c2nc3c(C)cccc3c(=O)o2)cc1	19%
COC(=O)c1ccc(COc2ncnc3c(Cl)cc(Cl)cc23)o1	-6.83%
CC(C)NC(=O)CSCc1c(Cl)cccc1Cl	-10.5%
COc1ccccc1NC(C)C(=O)Nc1ccc(C(C)=O)cc1 (centres unmarked)	-7.13%
COc1cccc(Nc2nc(N)c([N+](=O)[O-])c(NCc3ccccc3)n2)c1	6.25%
COCCN(C(=O)COC(=O)CC(C)c1ccccc1)c1c(N)n(Cc2ccccc2)c(=O)[nH]c1=O (centres unmarked)	11.7%
Cn1c(N)c(N=O)c(=O)n(C)c1=O	12.3%
COc1ccc2nc(C)c3c(c2c1)OC(C)C3 (centres unmarked)	-34.1%

SMILES	hERG current change (%, negative = inhibition) at 10uM
CCc1cc(CN2CCOCC2)c(NC(=O)c2ccccc2)s1	-25.9%
CCc1cc(=O)oc2c(C)c(OC(C)C(=O)NCCCn3ccnc3)ccc12 (centres unmarked)	-20.8%
Cc1ccc(NC(=O)CCNS(=O)(=O)c2ccc3[nH]c(=O)oc3c2)cc1	7.37%
Cc1ccc(C(C)C)c(OCC(=O)Nn2c(C)nc3ccccc3c2=O)c1	-29.5%
CC1(C)c2ccccc2N2CC(=O)NC21/C=C/c1ccco1 (centres unmarked)	2.9%
Cc1c([N+](=O)[O-])cc(C(=O)Nc2ccc3ncccc3c2)cc1[N+](=O)[O-]	17%
O=C(c1ccc(N2CCN(C3CC(=O)N(Cc4cccs4)C3=O)CC2)cc1)c1cccnc1 (centres unmarked)	-73.5%
COc1ccc(S(=O)(=O)N2CCC(C)CC2)cc1Br	-16.7%
COc1ccc(OC)c(NC(=O)CC2SC(=N)N(c3ccccc3)C2=O)c1 (centres unmarked)	-6.01%
COc1ccc(/C(O)=C2/C(=O)C(=O)N(CCN(C)C)C2c2ccc(OC)c(OC)c2)c(C)c1 (centres unmarked)	11%
Fc1ccc(-c2nnc(CSc3nnc(-c4ccc5c(c4)OCO5)o3)o2)cc1	-7.12%
C#CCOCCOCCOCCNc1nc(N2CCN(C(=O)CCCCCCCCCCNC(=O)Cn3cc(C[C@@H](C)O)nn3)CC2)nc(N2CCN(C(=O)CCCCCCCCCCNC(=O)[C@@H]([C@H](C)O)n3cc(C)nn3)CC2)n1	13.1%
CCOC(=O)C1=NN(C(C)=O)C2(CC(=O)N(c3ccc(C)c(C)c3)C2=O)C1 (centres unmarked)	-9.76%
Cc1cc2c(=O)[nH]cnc2s1	21.7%
CC(C)(C)OCC(O)C[NH+]1CCN(C(=O)c2ccccc2)CC1.O=C([O-])C(=O)[O-] (centres unmarked)	6.92%
Cc1nc2cc([N+](=O)[O-])ccc2c(=O)n1-c1cccc(Br)c1	-42.1%
CCOc1cc(S(=O)(=O)NC2CCCCC2)ccc1F	0.571%
Clc1ccc(-c2nc3n(n2)Cc2ccccc2-3)cc1	-1.39%
O=C(CNC1CCCC1)Nc1ccc(S(=O)(=O)N2CCCCC2)cc1	-0.797%
O=C(CN1CCC(N2CCCCC2)CC1)N1CCOCC1.O=C(O)C(=O)O	36.2%
Cc1cc(/C=C2/SC(=O)NC2=O)c(C)n1-c1ccc(N2CCOCC2)cc1	11.6%

SMILES	hERG current change (%, negative = inhibition) at 10uM
COC(=O)c1cc(OC)c(OC)cc1NC(=O)CCCCCN1C(=O)CCC1=O	21.7%
COc1ccc(CNC(=O)C(CCSC)NC(=O)c2ccco2)cc1 (centres unmarked)	-11.9%
CC(Cc1cccs1)NCc1ccccc1 (centres unmarked)	4.35%
CC(=O)Nc1ccc(S(=O)(=O)c2ccc(N)cc2)cc1N	1.67%
COc1ccc(C(=O)NCc2nnc(SCC(=O)Nc3nc4ccc(C)cc4s3)o2)cc1OC	4.72%
N#CC1=C(N)OC2=C(C(=O)CCC2)C1C1C=CCCC1 (centres unmarked)	-1.76%
C/C(=N\NC(=O)c1ccc(Br)cc1)c1cccnc1	5.22%
CC(C)CN1C(=O)c2ccccc2C1(O)Cc1ccccc1 (centres unmarked)	2.19%
C#CCOCCOCCOCCNc1nc(N2CCN(C(=O)[C@H](Cc3ccc(O)cc3)n3cc([C@@H](N)CC(C)C)nn3)CC2)nc(N2CCN(C(=O)[C@H](Cc3ccc(O)cc3)n3cc([C@@H](N)CC(C)C)nn3)CC2)n1.Cl	1.28%
NC(=O)CSc1nc2cc([N+](=O)[O-])ccc2n1-c1cccc(C(F)(F)F)c1	-69.9%
CC12C(=O)N(c3ccccc3)C(=O)C1C(c1ccccc1)N1CCCN12 (centres unmarked)	13%
CCOC(=O)c1sc(/N=C/c2c(C)[nH]n(-c3ccccc3)c2=O)c(C#N)c1C	-9.84%
O=C(N/N=C/c1ccc(OC(=O)c2cccs2)cc1)c1ccc(F)cc1	10%
O=C(c1cccc(S(=O)(=O)Nc2ccc(Br)cc2)c1)N1CCC1	2%
COc1ccc(Sc2cnn(-c3ccccc3)c(=O)c2Cl)cc1	-15.7%
CCCOc1ccc(C2=NNC(c3cccs3)=Nc3ccc(OC)cc32)cc1	1.25%
COc1cc(NC(=O)c2cc3cccc(OC)c3o2)cc(C(=O)Nc2cccc(C(F)(F)F)c2)c1	14.8%
CC(=O)Nc1ccc(C(=O)N/N=C/C2CC3C=CC2C3)cc1 (centres unmarked)	16%
O=C(C(c1ccccc1)c1ccccc1)N1CCN(CCN2C(=O)c3cccc4cccc(c34)C2=O)CC1	-4.74%
O=C(Nc1cccnc1)c1ccc(Br)c(S(=O)(=O)N2CCCC2)c1	22.1%

— publication PMC4336329 (PLoS ONE, 2015)
